# The entries are a selection whose mix differs from that of the whole data set. The list includes weakly bound sequences.
# Tests used:
# Experiment in all cases: protein-binding microarray (PBM)
# Details in all cases: PBM: ~300 nM protein, 6 mM HEPES pH 7.8, 80 mM KCl, 0.5 mM EDTA, 0.5 mM EGTA, 6% glycerol, 35 ng/ul poly-dIdC, 1% milk, 1 h, room temperature; Ap Aiptasia and Nv Nematostella (sea anemones) / Co Capsaspora / Aq Amphimedon (sponge) / Dm Drosophila / Hu human; RHD is the Rel homology domain; high values mean tight binding; most listed sequences are background and not binding sites; double strand, one strand shown
# GST-Ap-NF-kB RHD = target: T1, GST-Ap-NF-kB RHD (UniProt A0A913YAJ5)
# T1 sequence: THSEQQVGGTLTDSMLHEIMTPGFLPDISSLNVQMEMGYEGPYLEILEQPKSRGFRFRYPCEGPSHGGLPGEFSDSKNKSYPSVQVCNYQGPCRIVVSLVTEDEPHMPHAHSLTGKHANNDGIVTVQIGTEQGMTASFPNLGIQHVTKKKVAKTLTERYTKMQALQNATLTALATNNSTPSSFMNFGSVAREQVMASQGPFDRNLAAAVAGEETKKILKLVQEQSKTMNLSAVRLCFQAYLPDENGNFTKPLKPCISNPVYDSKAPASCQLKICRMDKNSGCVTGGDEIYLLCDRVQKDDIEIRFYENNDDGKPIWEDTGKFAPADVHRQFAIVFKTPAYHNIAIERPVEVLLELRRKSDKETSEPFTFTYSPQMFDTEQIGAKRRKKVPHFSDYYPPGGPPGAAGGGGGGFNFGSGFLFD
# [1] = target: T2, GST-Nv-NF-kB (Cys allele) (UniProt E5G601)
# T2 sequence: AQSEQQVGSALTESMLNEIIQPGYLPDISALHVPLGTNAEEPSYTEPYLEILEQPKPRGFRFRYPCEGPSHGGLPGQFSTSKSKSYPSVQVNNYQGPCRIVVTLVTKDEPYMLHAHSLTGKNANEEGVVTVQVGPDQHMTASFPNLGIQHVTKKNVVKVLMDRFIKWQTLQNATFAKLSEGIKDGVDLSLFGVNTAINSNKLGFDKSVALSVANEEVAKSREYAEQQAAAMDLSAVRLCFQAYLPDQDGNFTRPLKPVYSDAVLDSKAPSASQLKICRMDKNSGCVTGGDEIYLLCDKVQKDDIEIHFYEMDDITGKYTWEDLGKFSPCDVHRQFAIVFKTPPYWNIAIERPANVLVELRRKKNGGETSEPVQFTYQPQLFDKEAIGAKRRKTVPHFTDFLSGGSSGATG
# GST-Co-NF-kB = target: T3, GST-Co-NF-kB (UniProt F1ARL5)
# T3 sequence: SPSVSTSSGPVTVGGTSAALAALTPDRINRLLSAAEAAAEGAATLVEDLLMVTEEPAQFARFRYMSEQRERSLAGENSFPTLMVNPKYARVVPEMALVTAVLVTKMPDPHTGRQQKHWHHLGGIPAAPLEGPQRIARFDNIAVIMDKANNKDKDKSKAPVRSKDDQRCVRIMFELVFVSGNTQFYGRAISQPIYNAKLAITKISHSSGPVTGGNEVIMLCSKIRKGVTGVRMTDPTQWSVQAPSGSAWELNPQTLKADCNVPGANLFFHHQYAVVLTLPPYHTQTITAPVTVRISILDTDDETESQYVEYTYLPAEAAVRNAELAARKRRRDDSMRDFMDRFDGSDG
# GST-Dm-Relish = target: T4, GST-Dm-Relish (UniProt Q94527)
# T4 sequence: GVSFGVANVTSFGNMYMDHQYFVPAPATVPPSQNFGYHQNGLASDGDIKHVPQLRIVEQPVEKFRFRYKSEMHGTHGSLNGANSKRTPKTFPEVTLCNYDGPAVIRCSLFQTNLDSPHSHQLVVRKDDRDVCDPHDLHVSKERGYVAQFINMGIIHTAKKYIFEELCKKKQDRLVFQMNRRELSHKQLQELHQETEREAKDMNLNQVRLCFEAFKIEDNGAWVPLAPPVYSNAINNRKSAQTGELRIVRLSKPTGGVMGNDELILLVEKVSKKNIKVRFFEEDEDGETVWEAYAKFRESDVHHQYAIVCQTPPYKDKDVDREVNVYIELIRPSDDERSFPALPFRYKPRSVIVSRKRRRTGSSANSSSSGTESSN
# GST-Aq-NF-kB = target: T5, GST-Aq-NF-kB (UniProt A9Y5G7)
# T5 sequence: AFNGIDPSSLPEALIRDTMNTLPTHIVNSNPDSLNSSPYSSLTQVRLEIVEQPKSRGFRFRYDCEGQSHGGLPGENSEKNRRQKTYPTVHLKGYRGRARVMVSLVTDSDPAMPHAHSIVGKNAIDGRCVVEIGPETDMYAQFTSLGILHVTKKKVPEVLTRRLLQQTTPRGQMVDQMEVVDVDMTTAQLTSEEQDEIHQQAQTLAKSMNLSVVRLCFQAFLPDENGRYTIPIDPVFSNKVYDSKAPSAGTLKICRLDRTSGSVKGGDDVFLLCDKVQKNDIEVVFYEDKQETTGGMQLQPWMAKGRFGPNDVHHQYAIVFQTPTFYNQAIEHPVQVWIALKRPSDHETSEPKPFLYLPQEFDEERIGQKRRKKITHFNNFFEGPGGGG
Sequence,binding signal (GST-Ap-NF-kB RHD) [z-score],binding signal [1] [z-score],binding signal (GST-Co-NF-kB) [z-score],binding signal (GST-Dm-Relish) [z-score],binding signal (GST-Aq-NF-kB) [z-score]
CCGATTAACATCATCAAGTTGGGTGATGTTAATCGGGTCTTGATTCGCTTGACGCTGCTG,0.282,0.113,0.307,-0.0724,0.263
CCGATTAACATCAGGATTGCCCATGATGTTAATCGGGTCTTGATTCGCTTGACGCTGCTG,0.227,0.107,0.534,0.763,0.887
CCGATTAACATCAAATAGATGGCTGATGTTAATCGGGTCTTGATTCGCTTGACGCTGCTG,-0.231,-0.823,-0.223,-0.561,-0.349
CCGATTAACATCACAACCTACCATGATGTTAATCGGGTCTTGATTCGCTTGACGCTGCTG,0.409,-0.623,0.908,0.104,-0.47
CCGATTAACATCAAGACACTTGGTGATGTTAATCGGGTCTTGATTCGCTTGACGCTGCTG,-0.419,-0.468,-0.23,0.692,-0.38
CCGATTAACATCAACTATCCCGCTGATGTTAATCGGGTCTTGATTCGCTTGACGCTGCTG,0.26,0.788,1.37,-0.253,1.07
CCGATTAACATCAGCTCGGTGTGTGATGTTAATCGGGTCTTGATTCGCTTGACGCTGCTG,0.363,-0.29,0.243,0.489,-0.177
CCGATTAACATCAGTGCACGCCCTGATGTTAATCGGGTCTTGATTCGCTTGACGCTGCTG,-0.0506,-1.95,-1.75,-0.885,-0.248
CCGATTAACATCAAAGATTTGAATGATGTTAATCGGGTCTTGATTCGCTTGACGCTGCTG,-0.429,-0.0243,-1.26,-0.183,-0.431
CCGATTAACATCAAATTGGACGCTGATGTTAATCGGGTCTTGATTCGCTTGACGCTGCTG,-0.711,-0.175,-0.14,-0.322,-0.305
CCGATTAACATCAGGCACCTATCTGATGTTAATCGGGTCTTGATTCGCTTGACGCTGCTG,0.294,-0.221,-0.241,-0.306,-0.133
CCGATTAACATCACAAAAAATCCTGATGTTAATCGGGTCTTGATTCGCTTGACGCTGCTG,0.198,0.394,0.414,1.98,1.44
CCGATTAACATCACTCAATTACGTGATGTTAATCGGGTCTTGATTCGCTTGACGCTGCTG,-0.712,0.416,0.112,0.422,-0.765
CCGATTAACATCAAGTGCGCCCTTGATGTTAATCGGGTCTTGATTCGCTTGACGCTGCTG,-0.359,0.39,-1.07,-0.156,-0.342
CCGATTAACATCATTCAGCTACTTGATGTTAATCGGGTCTTGATTCGCTTGACGCTGCTG,-0.0522,0.21,-0.139,-0.591,-0.466
CCGATTAACATCACCGAACGCTTTGATGTTAATCGGGTCTTGATTCGCTTGACGCTGCTG,0.441,-0.507,-0.217,0.729,0.0848
CCGATTAACATCACCCATGTATTTGATGTTAATCGGGTCTTGATTCGCTTGACGCTGCTG,-0.124,-0.142,0.875,0.955,-0.002
CCGATTAACATCACTACTTGCTCTGATGTTAATCGGGTCTTGATTCGCTTGACGCTGCTG,-0.633,-0.583,-0.0166,-0.682,-0.373
CCGATTAACATCACCCAGTTGCTTGATGTTAATCGGGTCTTGATTCGCTTGACGCTGCTG,0.25,0.0326,0.681,0.103,0.118
CCGATTAACATCAGACAGTGTCTTGATGTTAATCGGGTCTTGATTCGCTTGACGCTGCTG,-0.0886,0.323,-0.129,-0.668,-0.55
CCGATTAACATCACGGAAATTCATGATGTTAATCGGGTCTTGATTCGCTTGACGCTGCTG,-0.339,0.109,0.774,0.144,0.717
CCGATTAACATCAAATTTCCAGGTGATGTTAATCGGGTCTTGATTCGCTTGACGCTGCTG,0.0388,0.257,0.76,0.661,0.752
CCGATTAACATCACTCAGTACTATGATGTTAATCGGGTCTTGATTCGCTTGACGCTGCTG,-0.394,-0.216,0.123,0.0521,-0.384
CCGATTAACATCATTTGGCTGACTGATGTTAATCGGGTCTTGATTCGCTTGACGCTGCTG,-0.283,-0.416,0.35,-0.573,-0.237
CCGATTAACATCAAATGGTAGTCTGATGTTAATCGGGTCTTGATTCGCTTGACGCTGCTG,0.11,0.0106,-0.157,-0.103,-0.4
CCGATTAACATCAAAATTCCATGTGATGTTAATCGGGTCTTGATTCGCTTGACGCTGCTG,-0.162,-0.201,-0.696,1.36,0.221
CCGATTAACATCACGATTCGATGTGATGTTAATCGGGTCTTGATTCGCTTGACGCTGCTG,-1.49,-0.614,-0.838,-0.109,-0.732
